# Source: the supplement of paper PMC9433436
# ± gives the standard deviation of the averaged measurements. Whole data set: some 4,100 sequences, median “relative kcat/Km (krel) vs genomic leader AAAGAU” near 1.7, cut for the highest 2% near 6.5. The list shows a part of the results, in another mix than the full data.
# Target: T1, E. coli RNase P holoenzyme (M1 P RNA + rnpA protein) (UniProt P0A7Y8)
# T1 sequence: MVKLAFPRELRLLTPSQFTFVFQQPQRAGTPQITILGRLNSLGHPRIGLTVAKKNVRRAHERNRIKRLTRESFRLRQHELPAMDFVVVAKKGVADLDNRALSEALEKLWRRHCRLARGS
# Assay: relative kcat/Km (krel) vs genomic leader AAAGAU (relative (reference leader = 1)); higher = faster RNase P cleavage
# Description: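 HTS-Kin: a pool of ptRNA-Met (21C construct) with all 4096 combinations of 5' leader nucleotides N(-6) to N(-1) was processed in vitro by E. coli RNase P (P RNA + rnpA/C5 protein) under multiple-turnover conditions at 37 C, pH 8, 17.5 mM MgCl2. Residual substrate was Illumina-sequenced at several fractions reacted, and relative kcat/Km (krel) was computed by internal competition kinetics, calibrated to the genomic leader (AAAGAU = 1). The listed hexamer is the varied N(-6)..N(-1) leader (DNA letters), and it sits between a fixed 5' stem-loop flank (GCAUGCACGAAAGUGCGUGCUAUGAA) and the mature tRNA-Met starting GGCUACGUAGCUCAGUUGG. Two technical replicates are averaged.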
# [1] = fraction of substrate reacted: ~9-10% (9.79% repeat 1, 9.1% repeat 2)
# [2] = fraction of substrate reacted: ~13-16% (15.68% repeat 1, 13.17% repeat 2)
# [3] = fraction of substrate reacted: ~26-29% (28.66% repeat 1, 26.4% repeat 2)
Sequence,relative kcat/Km [1],relative kcat/Km [2],relative kcat/Km [3]
GCACTA,1.73 ± 0.65,0.962 ± 0.041,1.81 ± 1.3
GGAAGG,0.692 ± 0.52,0.635 ± 0.14,1.44 ± 0.73
CGGAGA,1.25 ± 0.02,1.07 ± 1,1.81 ± 0.39
CTGTCC,0.844 ± 0.78,1.45 ± 0.52,2.28 ± 0.82
GACTGT,0.875 ± 0.79,1.18 ± 0.32,1.09 ± 0.23
TAGCTC,2.39 ± 1.3,2.26 ± 0.41,2.63 ± 0.76
ACGGAA,1.59 ± 0.25,1.923 ± 0.0075,1.49 ± 0.93
TGACAC,3.63 ± 1.5,4.21 ± 0.43,5.94 ± 2.2
GATATC,0.942 ± 0.075,1.42 ± 0.26,2.39 ± 0.44
TTTCGA,3.73 ± 2.1,3.93 ± 0.48,5.75 ± 1.8
GGGCTC,1.23 ± 0.8,,0.945 ± 0.2
CCGTCG,,0.981 ± 0.2,1.55 ± 0.7
TAGGCG,0.286 ± 0.26,,0.742 ± 0.13
CAGAGT,,,0.537 ± 0.3
TGAAAT,1.22 ± 0.26,2.22 ± 0.68,3.8 ± 1.3
GCGGAA,0.773 ± 0.073,1.02 ± 0.075,0.77 ± 0.11
CAAACC,1.98 ± 1.5,1.32 ± 0.45,1.1 ± 0.24
CGCCAG,1.79 ± 0.53,2.08 ± 1,3.05 ± 0.88
GTTCCA,1.15 ± 0.2,1.26 ± 0.4,1.84 ± 0.4
ACTAAG,1.74 ± 0.94,0.788 ± 0.28,1.59 ± 0.055
ACACCC,1.52 ± 0.034,1.78 ± 0.18,2.2 ± 1.1
GTTATC,2.26 ± 0.74,2.01 ± 0.18,2.99 ± 1.2
GTAGCT,1.18 ± 0.2,0.991 ± 0.27,1.38 ± 0.29
AGCGTA,,1.21 ± 0.14,1.7 ± 0.53
CGTCGG,0.274 ± 0.14,,0.654 ± 0.34
GCGTTA,0.782 ± 0.046,0.972 ± 0.54,1.49 ± 0.11

Sequence,relative kcat/Km [1],relative kcat/Km [2],relative kcat/Km [3]
ATTTGC,3.17 ± 0.9,3.69 ± 0.87,5.35 ± 1.6
CTAGTA,1.32 ± 0.52,0.841 ± 0.56,1.69 ± 0.87
CCGAGT,0.9 ± 0.24,0.883 ± 0.22,0.769 ± 0.58
CACACG,0.685 ± 0.67,,2.19 ± 0.16
CTTGGA,1.23 ± 1.1,1.2 ± 0.45,1.15 ± 0.8
CATCCA,1.79 ± 0.41,1.4 ± 0.24,2.42 ± 1.1
TAAGGA,,,1.04 ± 0.83
CCTCGA,1.95 ± 0.97,2.42 ± 0.15,3.44 ± 0.84
CCCTAT,3.137 ± 0.006,5.47 ± 1.1,7.09 ± 3.1
GCGTCC,1.32 ± 0.099,1.73 ± 0.52,2.64 ± 0.41
GGACAC,2.78 ± 2.7,2.55 ± 0.57,3.35 ± 1.3
ATCTAC,4.97 ± 1.4,6.58 ± 2,9.08 ± 4.5
AGATTG,,,1.32 ± 0.26
ACTGCC,1.78 ± 0.31,1.06 ± 0.47,1.7 ± 0.68
CCAGAA,1.22 ± 0.24,1.15 ± 0.94,1.77 ± 0.29
CTAGAG,1.59 ± 0.97,0.748 ± 0.22,1.43 ± 0.48
AATCAA,2.46 ± 1.6,2.43 ± 0.28,3.38 ± 1.1
CGTGTT,0.616 ± 0.59,1.06 ± 0.22,1.47 ± 0.9
GTGTTC,1.05 ± 0.15,0.422 ± 0.072,1.02 ± 0.17
GCTCAC,2.68 ± 1.5,2.67 ± 0.68,3.5 ± 1
TATATT,3.12 ± 1.4,3.21 ± 0.26,4.67 ± 2.2
ACCTCT,2.01 ± 0.77,2.54 ± 0.84,3.48 ± 1.1
AGATCC,2.035 ± 0.02,2.31 ± 0.73,3.01 ± 1.1
CATAGT,,,1.22 ± 0.91
GGATTT,1.77 ± 0.24,1.91 ± 0.31,2.37 ± 1.3
GTTACG,,0.734 ± 0.59,2.38 ± 0.098

Sequence,relative kcat/Km [1],relative kcat/Km [2],relative kcat/Km [3]
AAGGAC,0.653 ± 0.52,0.918 ± 0.69,1.12 ± 0.48
TGTCAT,3.5 ± 1.3,4.28 ± 1.1,6.84 ± 3.2
TCTTCC,2.29 ± 0.2,2.79 ± 1.1,3.55 ± 1.5
CCGCGC,2.23 ± 0.85,1.53 ± 0.98,1.76 ± 0.15
CCATTT,3.01 ± 0.74,3.3 ± 0.78,3.99 ± 1.6
TGGTCA,,0.637 ± 0.51,0.937 ± 0.37
GAATAA,2.88 ± 0.83,3.15 ± 0.5,4.29 ± 1.5
GAAATA,1.5 ± 1.3,1.4 ± 0.17,1.59 ± 0.32
GTAGTG,,,0.911 ± 0.15
CGAGAT,1.72 ± 1.4,1.26 ± 0.15,2.36 ± 0.57
CTTTTG,,,1.2 ± 0.39
GGACAA,0.879 ± 0.43,1.34 ± 0.47,2.59 ± 0.96
ATATGG,,,1.03 ± 0.96
GCGAAC,1.49 ± 0.72,1.56 ± 0.17,2.05 ± 0.32
TTGTTG,,,0.827 ± 0.79
AACTGC,1.95 ± 0.41,2.93 ± 0.36,3.68 ± 1.1
AATGGA,,,1.6 ± 1.1
GTCCTA,3.11 ± 1.4,3.47 ± 0.34,4.9 ± 1.2
GCGACA,0.951 ± 0.19,1.12 ± 0.15,1.41 ± 0.28
GGGTGA,,,0.657 ± 0.077
CGCTTC,2.21 ± 0.18,2.83 ± 1.1,4.57 ± 1.3
GAGATG,,,0.905 ± 0.069
ATTCGC,2.81 ± 0.77,3.32 ± 0.53,4.55 ± 1.5
CAACGA,1.26 ± 0.31,1.57 ± 0.31,2.61 ± 0.73
GCGATC,1.7 ± 1.3,1.62 ± 0.72,1.7 ± 0.24
GAGAGC,1.56 ± 0.32,1.76 ± 0.13,2.08 ± 0.19

Sequence,relative kcat/Km [1],relative kcat/Km [2],relative kcat/Km [3]
GGAACA,1.16 ± 0.49,1.39 ± 0.3,1.53 ± 0.0065
TCTCGC,2.86 ± 0.37,3.63 ± 0.6,4.81 ± 1.6
CGGCTT,0.767 ± 0.043,0.707 ± 0.2,0.573 ± 0.28
GTTACT,1.81 ± 0.53,2.06 ± 0.25,3.21 ± 1.5
CTCGCG,2.22 ± 1.4,1.19 ± 1.2,3.19 ± 1
GCCAGT,,,1.07 ± 0.27
CGCGAT,1.45 ± 0.44,1.95 ± 0.54,2.61 ± 0.9
AAATCC,2.19 ± 1.6,1.69 ± 0.46,1.73 ± 0.1
AAATGC,2.72 ± 0.1,2.57 ± 0.88,2.84 ± 1.1
TTTGAC,2.96 ± 1.2,3.63 ± 0.8,5.51 ± 2.6
CCCAAG,1.92 ± 1.8,1.745 ± 0.017,3.56 ± 0.87
ACGAAT,1.52 ± 0.086,2.48 ± 0.9,3.45 ± 1.6
TACGTA,2.14 ± 0.53,2.47 ± 0.38,3.67 ± 1.2
GCCCTA,2.3 ± 0.98,1.641 ± 0.0073,3.56 ± 0.7
GACTGA,2.61 ± 1.4,3.21 ± 0.64,5.15 ± 1.4
ATACGT,0.722 ± 0.057,1.92 ± 1.6,
CTAAGC,1.65 ± 0.3,2.19 ± 0.16,2.47 ± 0.38
AAAGTT,,0.945 ± 0.91,0.442 ± 0.33
TACCCT,2.55 ± 1.1,2.63 ± 0.06,3.63 ± 1.3
ATCTCC,3.67 ± 0.85,4.83 ± 1.4,6.39 ± 2.9
GTAGCC,1.99 ± 0.12,1.48 ± 0.66,2.13 ± 0.51
ATGACC,1.45 ± 0.43,1.53 ± 0.06,1.7 ± 0.27
CATCTA,2.59 ± 1.4,1.96 ± 0.57,2.74 ± 0.76
